# Laboratory results: the supplement of paper PMC7826260
# The other results are listed elsewhere or left out. Each Rep nickase domain was tested in vitro on the same pool of single strands (1 h at 37 °C, 3 µM enzyme); the outer parts of the 90-letter strands are left off. Uncut reads are compared with the no-enzyme pool on a log2 scale; more negative means more cut, near 0 not cut, and no call is made. Shares of all reads are compared; values above 0 arise when much of the pool is cut.
# Test system: T1, Rep nickase domain of tomato golden mosaic virus
# T1 sequence (protein, residues 1-124, tag omitted): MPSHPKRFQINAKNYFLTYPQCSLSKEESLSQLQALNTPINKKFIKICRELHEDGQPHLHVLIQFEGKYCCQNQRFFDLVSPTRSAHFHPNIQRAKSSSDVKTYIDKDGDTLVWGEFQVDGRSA
# Assay: uncleaved DNA left, log2 of reads against the no-enzyme library (log2 ratio); higher = less cleavage (more negative = more Rep cleavage of the k-mer); sequences stand for … in CTCGTCCG…ACCGGAGA
# Procedure: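 A pool of 90-nt single-stranded DNAs with seven random bases just before the constant AC of the nick site (name = the seven bases) was cut by 3 µM recombinant His6-SUMO-tagged Rep nickase domain (300 nM DNA, 50 mM HEPES pH 8.0, 50 mM NaCl, 1 mM MnCl2, 1 h, 37 °C, three replicates). Uncut DNA was amplified and sequenced.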
row,Sequence,uncleaved DNA left (log2)
1,CAGAGCG,-0.0207
2,ACATGTT,-0.295
3,CGAAGCA,0.155
4,AAACGAG,-0.0571
5,CAGGCAC,0.021
6,TATGTAT,-0.0426
7,TCTGGGG,0.134
8,AAGGTTG,0.129
9,CCGTACT,-1.79
10,ACGTCTT,-0.0352
11,CCACTGT,-0.198
12,CATTTCA,-0.0181
13,GTTATAA,0.151
14,CCCTGTA,-0.065
15,CGAACCC,-0.262
16,GTGTCAG,0.0263
17,GAGGCAG,0.109
18,TGCTAAG,0.0887
19,AATTCAT,0.0143
20,TCAGTTC,-0.0685

row,Sequence,uncleaved DNA left (log2)
1,GACGGCC,0.0349
2,CTACGCA,-0.133
3,CCGGTGA,-0.0372
4,AATAGGC,0.0515
5,GTTGTCT,0.0843
6,GAGATAA,0.16
7,TGTTGTA,-0.0187
8,CTGCCGC,-0.0929
9,AGGGTTA,0.031
10,CTGCGTT,-0.232
11,ACAACCC,-0.0826
12,GCGACCT,-0.0474
13,CACATTG,0.0123
14,AGTCCGA,-0.102
15,GGACCTC,-0.0334
16,AGCCGGG,-0.0432
17,TCGATAC,-0.0394
18,AAGCTTA,-0.0373
19,GACCGCG,-0.0221
20,CTTGCGG,0.127
